Values joined by “and” are separate entries in the source; they are usually repeats but may differ in a detail not shown here. Identical values can stand only once. Screen size: about 420,000 compounds; about 64,000 (15%) were called active. Inconclusive results, whose numbers are uncertain, are shown with a selection of clear calls. Calls follow the shape of the dose curve; as a rule, active = well fitted inhibition curve with a large enough effect; inconclusive = small, poorly fitted or top-dose-only effect; inactive = flat fitted curve, though single readings scatter. Potencies of inconclusive entries are doubtful fits and often do not repeat.
Test: qHTS for Inhibitors of human tyrosyl-DNA phosphodiesterase 1 (TDP1): qHTS in cells in absence of CPT; also: nearly all actives have a fitted effect of over 55% in size
Conditions: DT40 Tdp1-/- hTDP1 cells, no CPT, ATP luminescence, 48 h; activity change, negative = growth inhibition: at 46.2 µM (top of the series) unless noted
Method in brief: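 Chicken DT40 Tdp1-/- cells complemented with human TDP1, screened without camptothecin (DMSO vehicle only), 400 cells/well. Compounds pin-transferred, cells incubated at 37 °C for at least 48 hr. Growth read as ATP-dependent luminescence (CellTiter-Glo, 30 min at RT).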
% is scaled to controls: 0 for no effect and ±100 for the full control effect; potency is read from the fitted curve at half-maximal effect; tags tell the direction and shape of the fitted curve.

Structure (SMILES)	Potency	activity change, negative = growth inhibition
CCN(C(=O)CSc1ccc(S(=O)(=O)N2CCOCC2)cn1)c1ccccc1	active: 16.4 µM	
NC(CCc1ccccc1)c1csc(NC(=O)Nc2cccc(C(F)(F)F)c2)n1 (configuration not stated)	active: 20.6 µM	
CCC(=O)N1CCc2cc(Br)cc(S(=O)(=O)CCC(=O)N3CCN(c4cccc(C)c4)C(C)C3)c21 (configuration not stated)	inconclusive: 29.1 µM [inhibitor, single point]	
Cc1cc(N)c2cc(NC(=O)Nc3ccc4nc(C)cc(N)c4c3)ccc2n1	inconclusive: 29.9 µM [inhibitor, single point]	
Clc1ccc(/C=N\Nc2ccccc2)cc1	inactive	
O=C(CN1CCN(S(=O)(=O)c2cccc(Cl)c2)CC1)NCC1(N2CCOCC2)CCCCC1	inconclusive: 18.4 µM [inhibitor, single point]	
O=C(Nc1nc(-c2cccc3ccccc23)cs1)c1ccc2c(c1)S(=O)(=O)c1ccccc1C2=O	active: 9.2 µM	
CCOC(=O)c1cc(C(=O)OCC)c(=O)[nH]c1SCc1ccccc1	inactive	
O=C(NCc1ccc(Cl)cc1)NCc1noc2ccccc12	inconclusive: 25.9 µM [inhibitor, single point]	
CC(=O)NCc1ccc(C(=O)CCl)cc1	inconclusive: 29.1 µM [inhibitor, partial curve, poor fit]	
Cc1c(C(=O)NNC(=O)c2ccccc2O)oc2ccccc12	inconclusive: 29.1 µM [inhibitor, single point]	
CCc1ccccc1NC1=NCC(=O)N1Cc1ccccc1	inconclusive: 23.1 µM [inhibitor, single point]	
Cc1cc(OCC(=O)Nc2cc(-c3nc4ncccc4o3)ccc2C)ccc1Cl	inconclusive: 11.6 µM [inhibitor, partial curve]	
COc1cccc(-c2nn(-c3ccccc3)cc2CN2CCCO2)c1	inactive	
COc1cccc(NC(=O)c2cccc(Cl)c2)c1	inactive	
COC(=O)c1ccccc1NC(=O)C1=CC(c2cccs2)=NS(=O)(=O)N1C	inconclusive: 23.1 µM [inhibitor, single point] and inconclusive: 29.1 µM [inhibitor, single point]	
O=C(/C=C/[C@H]1O[C@@H](n2ccc(=O)[nH]c2=O)[C@H](O)[C@@H]1O)N1CCN(Cc2ccc(F)cc2)CC1	inactive	
O=C1C2CC=CCC2C(=O)N1Nc1ccccc1 (configuration not stated)	inactive	
Cc1nc(SCC(=O)NC(=O)NC2CCCCC2)nc(C)c1C	inconclusive: 18.4 µM [inhibitor, partial curve]	
CC(=O)c1c(C)[nH]c(C(=O)OCC(=O)NCc2ccc(Cl)cc2)c1C	inconclusive: 16.4 µM [inhibitor, single point]	
Cc1ccc(C(c2nnnn2CC2CCCO2)N2CCN(Cc3ccccc3)CC2)cc1 (configuration not stated)	inactive	
Cc1ccc(S(=O)(=O)c2nnn(-c3ccc(F)c(Cl)c3)c2N)cc1	inconclusive: 7.31 µM [inhibitor, partial curve]	
CC(c1ccco1)N(C(=O)c1ccccc1NS(=O)(=O)c1ccc(Cl)c([N+](=O)[O-])c1)c1ccccn1 (configuration not stated)	inconclusive: 18.4 µM [inhibitor, single point]	
COc1ccc(-c2[nH]c3ccccc3c2SCCN)cc1	inconclusive: 29.1 µM [inhibitor, single point]	

Structure (SMILES)	Potency	activity change, negative = growth inhibition
CCCNc1nc(C)cc(-c2cc(C(=O)NCc3ccccc3)on2)n1	inactive	
C=CCN1C(=O)C(Cc2ccc(F)cc2)S/C1=N/N=C/c1cccs1 (configuration not stated)	active: 29.1 µM	
Cc1cnc(C(=O)OCC(=O)Nc2cc(-c3cc(C)c(C)cc3C)nn2-c2ccccc2)cn1		inconclusive: -31.6% [inhibitor]
CCN(CC)S(=O)(=O)c1ccc(OC)c(NC(=O)C2CC(=O)N(c3ccc4c(c3)OCCO4)C2)c1 (configuration not stated)	inactive	
CN1CCN(c2ncc3nc(-c4ccccc4)c(=O)n(CCc4ccccc4)c3n2)CC1	inactive	
O=C(Oc1ccc(OC(=O)N2CCCCC2)cc1)c1ccccc1	active: 0.0461 µM	
CSc1cccc(NC(=O)CNS(=O)(=O)c2ccccc2)c1	inactive	
Cc1nn(CC(=O)Nc2ccc(OC(F)(F)F)cc2)c(=O)c2c(C)n(-c3ccc(Cl)cc3)nc12	inconclusive: 29.1 µM [inhibitor, single point]	
O=C(COc1cc2oc(=O)c3c(c2cc1Cl)CCC3)NCc1ccncc1	inactive	
Cc1cc(C)c(NC(=O)CN(C)C(=O)CCC(=O)c2ccc(C)s2)c(C)c1	inactive	
c1ccc(Cn2c(NCc3ccccn3)nc3ccccc32)cc1	inactive	
O=C(CC(=O)c1c(F)cccc1Cl)c1ccccc1O	active: 11.6 µM	
COc1ccc(CCNC(=O)COC(=O)/C=C/c2ccc3c(c2)OCO3)cc1OC		inconclusive: -31.7% [inhibitor]
O=S(=O)(Nc1cccc(-c2cn3cccnc3n2)c1)c1ccc(Cl)cc1	inconclusive: 11.6 µM [inhibitor, partial curve]	
O=C(Cn1cnc2c(NCc3ccccc3)ncnc21)NCc1ccccc1	active: 2.91 µM	
Cc1ccc(C(=O)Nc2ccccc2-c2ccccc2)o1	inconclusive: 8.2 µM [inhibitor, partial curve]	
CN(CCNC(=O)c1cc2c(=O)n(C)c3ccccc3c2n1C)Cc1ccccc1	inconclusive: 16.4 µM [inhibitor, single point]	
COc1ccc(OCc2ccc(-c3nc(C#N)c(NC(C)c4ccccc4)o3)o2)cc1 (configuration not stated)	inactive	
COc1ccc(CNC(C)C2COc3ccccc3O2)c(OC)c1 (configuration not stated)	inconclusive: 18.4 µM [inhibitor, partial curve]	
CCc1ccc(Nc2nnc(SCn3nnc4ccccc4c3=O)s2)cc1		inconclusive: -30.2% [inhibitor]
CCOc1ccc(NC(=O)c2cccc(OC(=S)N3CCC(C)CC3)c2)cc1	inconclusive: 29.1 µM [inhibitor, single point]	
COc1ccc2nc(/C=N/NC(=O)[C@@H]3CCCN3C(=O)OC(C)(C)C)ccc2c1	inconclusive: 23.1 µM [inhibitor, single point]	
O=C(COC(=O)C1CC2C=CC1C2)NCCc1ccccc1 (configuration not stated)	inactive	
COc1ccc(CCNC(=O)c2nc(-c3ccc(Cl)cc3)n3c2CCCCC3)c(OC)c1	active: 9.2 µM	

Structure (SMILES)	Potency	activity change, negative = growth inhibition
O=C(N1CCN(c2ccc(F)cc2)CC1)C12CC3CC(CC(C3)C1)C2	inconclusive: 23.1 µM [inhibitor, partial curve]	
CC(OC(=O)c1ccc(CN2CCCC2=O)cc1)C(=O)Nc1ccc(Cl)cc1 (configuration not stated)	inconclusive: 20.6 µM [inhibitor, single point]	
Cc1ccc(N(Cc2ccccc2)C(=O)c2cccc(S(=O)(=O)N3CCOCC3)c2)cc1	active: 20.6 µM	
COc1ccc(-c2oc3cccnc3c2-c2ccc(OC)nc2)cc1	inconclusive: 29.1 µM [inhibitor, single point]	
O=C(N=Nc1c(O)[nH]c2ccc(Br)cc12)c1ccccc1-n1cccc1	active: 2.59 µM	
Cc1ccc(C(=O)NC2CC2)cc1S(=O)(=O)N1CCOCC1	inactive	
CC1CC(C)(C)CC2(C1)NC(=O)N(CC(=O)Nc1c(F)cccc1F)C2=O (configuration not stated)	inactive	
CC1CCc2sc3nc(NCc4ccco4)n4ncnc4c3c2C1 (configuration not stated)	inconclusive: 29.1 µM [inhibitor, single point]	
CCc1c(C)sc(NC(=O)C2CCCCC2C(=O)O)c1C(N)=O (configuration not stated)	inconclusive: 29.1 µM [inhibitor, single point]	
CCOc1ccccc1-n1c(SCC(=O)Nc2ccccc2C(=O)O)nc2ccccc2c1=O	inconclusive: 29.1 µM [inhibitor, single point]	
COc1ccc(Cl)cc1C=CC=Nc1ccc(S(N)(=O)=O)cc1	active: 16.4 µM	
Cc1ccc(Nc2c(-c3ccc(C)s3)nc3ccccn23)cc1	inconclusive: 23.1 µM [inhibitor, single point] and inconclusive: 35.5 µM [inhibitor, single point]	
O=C(c1cc(COc2ccc(F)cc2Cl)on1)N(Cc1ccncc1)CC1CCCO1 (configuration not stated)	inconclusive: 25.9 µM [inhibitor, single point]	
Cc1ccccc1CN(C)c1ccc(S(=O)(=O)N2CCN(C)CC2)cn1	inconclusive: 29.1 µM [inhibitor, single point]	
O=C(NC1CCCCCC1)C1CCN(c2nc3ccccc3o2)CC1	active: 16.4 µM	
C(=C\c1ccnc2ccccc12)/c1ccc(N2CCOCC2)cc1	active: 1.26 µM	
CCCNC(=O)c1ccc(COc2ccc(CCC)cc2OC)o1	active: 14.6 µM	
CCn1c(SCC(=O)N/N=C/c2c[nH]c3ccccc23)nnc1-c1ccc(C)cc1	inconclusive: 25.9 µM [inhibitor, single point]	
O=C(Nc1cccc([N+](=O)[O-])c1)C1C2/C=C\CCCCC21 (configuration not stated)	inconclusive: 16.4 µM [inhibitor, partial curve, poor fit]	
CC(=O)N1CCN(C(=O)c2ccc3c(c2)OCO3)CC1	inactive	
COc1ccc2c(c1)c(C(=O)N/N=C/c1cccc(O)c1)c(C)n2C	active: 10.3 µM	
Cc1cc(Cl)ccc1NC(=O)Cc1ccc(NC(=O)N2CCCCc3ccccc32)cc1	inconclusive: 18.4 µM [inhibitor, single point]	
COC(=O)c1cccc(NC2=NS(=O)(=O)c3ccccc32)c1	inconclusive: 25.9 µM [inhibitor, single point]	
COC(=O)c1cc(COc2ccc3c(c2)oc(=O)c2ccccc23)c(C)o1	inconclusive: 11.6 µM [inhibitor, partial curve, poor fit]	
